According to the antibiotic and cytotoxicity screens of Wong et al. (2023):
This is one part of the list.

Assays:
HSkMC = human skeletal muscle cells; experiment: cytotoxicity call (relative viability < 0.9); settings: 10 µM
S. aureus RN4220 = experiment: growth inhibition call (relative growth <= 0.2); settings: 50 µM

SMILES	cytotoxicity call (HSkMC)	growth inhibition call (S. aureus RN4220)
C[C@H]1CN([C@@H](C)CO)C(=O)c2c(c3ccccc3n2C)-c2ccccc2CO[C@H]1CN(C)C(=O)Nc1cccc(C(F)(F)F)c1	inactive	inactive
C[C@@H]1CN([C@@H](C)CO)S(=O)(=O)c2ccc(-c3ccncc3)cc2O[C@@H]1CN(C)C(=O)c1cccc(F)c1	inactive	inactive
C[C@@H]1CN([C@@H](C)CO)C(=O)c2cc(C#Cc3cccc(F)c3)cnc2O[C@H]1CN(C)CC1CCOCC1	inactive	inactive
C[C@@H]1CN([C@@H](C)CO)C(=O)Cc2cc(NS(=O)(=O)c3ccccc3)ccc2O[C@@H]1CN(C)S(=O)(=O)c1cn(C)cn1	inactive	inactive
CO[C@H]1CN(C)C(=O)c2ccc(NS(=O)(=O)CC(F)(F)F)cc2OC[C@H](C)N(C(=O)NC(C)C)C[C@@H]1C	inactive	inactive
COc1ccc(S(=O)(=O)Nc2ccc3c(c2)CC(=O)N([C@H](C)CO)C[C@@H](C)[C@H](CN(C)S(=O)(=O)c2cn(C)cn2)O3)cc1	inactive	inactive
C[C@@H]1CCCCO[C@@H](CN(C)S(=O)(=O)c2ccc(F)cc2)[C@H](C)CN([C@@H](C)CO)C(=O)c2cc(NC(=O)Nc3ccc(C(F)(F)F)cc3)ccc2O1	inactive	inactive
O=C(c1ccccc1)N1Cc2ccccc2[C@H]2OC(c3ccc(OCCCO)cc3)=N[C@@]2(Cc2ccccc2)C1=O	inactive	inactive
Cc1cccc(C(=O)O)c1O	inactive	inactive
CO[C@@H]1[C@@H](O[C@@H]2O[C@H](C)[C@@H](O[C@H]3C[C@@](C)(O)[C@@H](O)[C@H](C)O3)[C@H](N(C)C)[C@H]2O)[C@@H](CC=O)C[C@@H](C)[C@@H](O[C@H]2CC[C@H](N(C)C)[C@@H](C)O2)/C=C/C=C/C[C@@H](C)OC(=O)C[C@H]1O	inactive	active
C[C@H](CO)N1C[C@H](C)[C@@H](CN(C)S(=O)(=O)c2cccs2)Oc2ccc(NS(=O)(=O)c3ccc(F)cc3)cc2CC1=O	inactive	inactive
Cc1ccc(S(=O)(=O)N(C)C[C@@H]2Oc3cc(C#Cc4ccccc4)ccc3S(=O)(=O)N([C@@H](C)CO)C[C@@H]2C)cc1	inactive	inactive
C[C@@H]1CN([C@@H](C)CO)C(=O)c2ccccc2-c2ccccc2CO[C@H]1CN(C)C(=O)c1cc(Cl)cc(Cl)c1	inactive	inactive
Cc1ccc(S(=O)(=O)N(C)C[C@@H]2Oc3ccc(NC(=O)Cn4cnnn4)cc3C(=O)N([C@@H](C)CO)C[C@@H]2C)cc1	inactive	inactive
CNC[C@@H]1OCCCC[C@@H](C)Oc2ccc(NS(=O)(=O)c3cn(C)cn3)cc2C(=O)N([C@H](C)CO)C[C@@H]1C	inactive	inactive
Cc1noc(C)c1NC(=O)Nc1ccc2c(c1)CC(=O)N([C@H](C)CO)C[C@H](C)[C@H](CN(C)S(=O)(=O)c1cn(C)cn1)O2	inactive	inactive
C[C@H](CCC(=O)NCC(=O)NCCS(=O)(=O)O)[C@H]1CC[C@H]2[C@@H]3[C@H](O)C[C@@H]4C[C@H](O)CC[C@]4(C)[C@H]3C[C@H](O)[C@]12C	inactive	inactive
COc1ccc(-c2cn3cc(C(=O)NCC(N)=O)nc3c(=O)n2CC2CC2)c(F)c1	inactive	inactive
Cc1noc(C)c1S(=O)(=O)N(C)C[C@H]1OCCCC[C@@H](C)Oc2ccc(NC(=O)Nc3ccc(F)cc3)cc2C(=O)N([C@@H](C)CO)C[C@H]1C	inactive	inactive
C[C@@H]1CN([C@@H](C)CO)C(=O)c2cc(NC(=O)CCC(F)(F)F)ccc2O[C@@H](C)CCCCO[C@H]1CN(C)C(=O)Nc1ccc(C(F)(F)F)cc1	inactive	inactive
C[C@@H]1CN([C@H](C)CO)S(=O)(=O)c2ccc(C#CC3(O)CCCC3)cc2O[C@@H]1CN(C)C(=O)c1ccccc1	inactive	inactive
C[C@H](CO)N1C[C@H](C)[C@H](CN(C)C(=O)Nc2ccc(F)cc2)OCCCC[C@H](C)Oc2ccc(NC(=O)c3ccccc3)cc2C1=O	inactive	inactive
C[C@@H]1CN([C@@H](C)CO)C(=O)c2c(c3ccccc3n2C)-c2ccccc2CO[C@@H]1CN(C)Cc1ccc2c(c1)OCCN2C	inactive	inactive
Cc1noc(C)c1S(=O)(=O)N(C)C[C@@H]1OCCCC[C@H](C)Oc2ccc(NC(=O)Nc3ccccc3)cc2C(=O)N([C@@H](C)CO)C[C@H]1C	inactive	inactive
